Screen size: about 310,000 compounds; about 2,200 (0.71%) showed an effect of 50% or more. The effect is printed as a negative number. The list shows a part of the results.
The compounds below were run against human ether-à-go-go-related gene (hERG) potassium channel (human, UniProt Q12809) (assay: primary screen, population patch clamp on CHO cells stably expressing hERG).
Chain of human ether-à-go-go-related gene (hERG) potassium channel (Q12809 whole entry, looked up): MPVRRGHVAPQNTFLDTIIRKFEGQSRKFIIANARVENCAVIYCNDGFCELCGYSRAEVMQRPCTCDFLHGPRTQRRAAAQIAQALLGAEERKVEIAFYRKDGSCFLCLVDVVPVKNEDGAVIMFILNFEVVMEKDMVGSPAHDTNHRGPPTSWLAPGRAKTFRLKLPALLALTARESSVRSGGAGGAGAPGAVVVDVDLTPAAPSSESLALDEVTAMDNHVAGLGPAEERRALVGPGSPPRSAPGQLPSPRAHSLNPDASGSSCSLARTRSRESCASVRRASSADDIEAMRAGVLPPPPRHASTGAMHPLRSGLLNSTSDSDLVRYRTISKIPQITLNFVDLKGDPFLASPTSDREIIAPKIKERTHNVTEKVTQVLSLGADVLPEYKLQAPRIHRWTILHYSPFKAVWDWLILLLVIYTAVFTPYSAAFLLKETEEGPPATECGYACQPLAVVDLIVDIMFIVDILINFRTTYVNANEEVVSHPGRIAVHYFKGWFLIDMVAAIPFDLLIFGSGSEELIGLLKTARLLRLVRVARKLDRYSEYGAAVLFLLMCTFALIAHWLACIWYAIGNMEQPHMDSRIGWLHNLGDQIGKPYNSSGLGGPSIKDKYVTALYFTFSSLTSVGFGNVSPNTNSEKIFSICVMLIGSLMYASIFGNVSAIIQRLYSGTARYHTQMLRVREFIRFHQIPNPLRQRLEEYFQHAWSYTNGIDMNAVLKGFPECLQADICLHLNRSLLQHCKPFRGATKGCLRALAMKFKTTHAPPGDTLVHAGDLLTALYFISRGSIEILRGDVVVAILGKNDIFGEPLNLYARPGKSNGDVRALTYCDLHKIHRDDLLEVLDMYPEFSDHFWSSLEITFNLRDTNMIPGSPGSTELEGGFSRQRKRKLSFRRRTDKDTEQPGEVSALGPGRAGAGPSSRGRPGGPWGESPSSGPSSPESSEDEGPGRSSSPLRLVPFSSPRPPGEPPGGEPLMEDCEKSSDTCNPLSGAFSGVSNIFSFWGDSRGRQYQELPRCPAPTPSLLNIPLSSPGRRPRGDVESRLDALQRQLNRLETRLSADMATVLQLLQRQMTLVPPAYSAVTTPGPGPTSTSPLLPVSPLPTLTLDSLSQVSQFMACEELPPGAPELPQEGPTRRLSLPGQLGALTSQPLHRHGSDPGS

Row | Compound | hERG current change (%, negative = inhibition) at 1uM
1 | O=C(NC1CCSc2ccccc21)c1ccccc1F (stereo not shown) | 6.84%
2 | Cl.Fc1ccc(-c2ccc(CNCc3ccccn3)o2)cc1 | 11.5%
3 | COc1ccc(C)cc1NC(=O)C1CCN(S(C)(=O)=O)CC1 | 11.2%
4 | Cc1cnc(C(=O)OC(C)C(=O)Nc2ccc(Cl)cn2)cn1 (stereo not shown) | 12.2%
5 | Cc1ccc(SCc2[nH]nc3c2C2(C(=O)N(C)c4ccccc42)C(C#N)=C(N)O3)cc1 (stereo not shown) | 2.51%
6 | C/C(=N\NC(=O)c1nnn(-c2nonc2N)c1CN(C)c1ccccc1)c1cccnc1 | 14.3%
7 | CCCCCCn1c(O)c(C=NCCN2CCOCC2)c(=O)[nH]c1=O | 7.51%
8 | CS(=O)(=O)N(Cc1nnc(-c2cccs2)o1)c1ccc(Cl)cc1F | 1.29%
9 | CC(N=Cc1ccccc1O)c1ccccc1 (stereo not shown) | 10.2%
10 | Cc1noc(C)c1CC(=O)Nc1ccc2c(c1)OCO2 | 1.31%
11 | O=C(NCc1ccncc1)C(=O)NCc1ccncc1 | 9.27%
12 | COc1ccc(C2NS(=O)(=O)N=C2N)cc1 (stereo not shown) | 10.3%
13 | CCC(C)NC(=O)Cn1cnc2sc(C)cc2c1=O (stereo not shown) | 1.12%
14 | COc1ccc(CN(C)C(=O)c2cc(S(=O)(=O)NCc3ccccc3)ccc2C)c(OC)c1 | 5.08%
15 | Cc1noc(/C=C/N(C)C)c1S(=O)(=O)N(C)CC(=O)NC1CCCCC1 | 10.2%
16 | CCOC(=O)N1CCN(C(=O)c2ccccc2NS(=O)(=O)c2ccc(C)cc2)CC1 | 5.59%
17 | COc1ccc(NC(=O)O/N=C2/CCCc3ccc(OC)cc32)cc1 | 8.82%
18 | CC(C)NC(=O)c1ccc(CS(=O)(=O)c2ccc(Br)cc2)o1 | 1.46%
19 | NS(=O)(=O)c1ccc(CNC(=O)Cc2ccccc2F)cc1 | 5.27%
20 | COc1cc(OC)c(NC(=O)C(=O)CC(=O)c2ccc(C)cc2C)cc1Cl | 15.9%
21 | Cc1ccc(C)c(NC(=O)C2CC(O)CN2C(=O)Oc2ccccc2)c1 (stereo not shown) | 11.8%
22 | Cc1ccc(CN2C(=O)N/C(=C\c3ccc(-c4ccc(C(=O)O)cc4C)o3)C2=O)cc1 | 2.71%

Row | Compound | hERG current change (%, negative = inhibition) at 1uM
23 | COc1ccc(C2CC(=O)C(C=NCCCO)=C(O)C2)cc1 (stereo not shown) | 11.6%
24 | Cc1cccc(-n2c(Cc3cc(=O)[nH]c(=O)[nH]3)nnc2SCC(=O)Nc2cccc(C(F)(F)F)c2)c1 | -0.582%
25 | CCOCc1cc(CN2CCC(CCC(=O)NC3CC3)CC2)ccc1OC | -14.7%
26 | Cc1cccc(Nc2c(-c3ccc(N4CCOCC4)cc3)nc3ncccn23)c1 | 11.4%
27 | CCCN(C(=O)c1cnccn1)c1c(N)n(Cc2ccccc2)c(=O)[nH]c1=O | 5.66%
28 | Cc1ccc(/C=N/Nc2ccc(Cl)c(C(=O)O)c2)s1 | 8.18%
29 | Cc1cnn(-c2cc(N/N=C/c3ccccc3F)ncn2)c1 | 8.07%
30 | C=CCOC(=O)C1C(=O)CC(C)(O)C(C(=O)OCC=C)C1c1ccc(N(C)C)cc1 (stereo not shown) | 15%
31 | Cc1ccccc1-n1c(SCC(=O)c2cc(C)n(C)c2C)nnc1-c1cccnc1 | -12.5%
32 | CCN(CC)S(=O)(=O)c1ccc(C)c(NC(=O)Cn2c(=O)cnc3ccccc32)c1 | 15.8%
33 | COc1ccc(NC2CC(=O)N(C)C2=O)cc1 (stereo not shown) | 0.171%
34 | COc1ccc(-n2c(C)cc(C(=O)Cn3nc(C(=O)O)c4ccccc4c3=O)c2C)cc1 | 6.01%
35 | COc1cccc(/C=C2\SC(=S)N(NC(=O)c3ccncc3)C2=O)c1 | 8.15%
36 | O=C(O)CCCNS(=O)(=O)Cc1ccccc1 | 8.66%
37 | CC1CCN(C(=O)c2[nH]cnc2C(=O)NC2CCN(C(=O)OC(C)(C)C)CC2)CC1 | 14.2%
38 | Cc1cc(Cl)ccc1NC(=S)NCCCO | 12.4%
39 | Cc1cccc(Cn2nc(C(C)(C)C)cc2C(=O)N2CCOCC2)c1 | -5.8%
40 | Br.CCn1c(=N)n(CC(=O)c2cccc([N+](=O)[O-])c2)c2ccccc21 | 7.53%
41 | CCC(=O)Nc1ccc(NC(=O)CSc2nnnn2-c2ccc3c(c2)OCCO3)cc1 | 0.475%
42 | COC(=O)[C@@]1(Cc2ccc(F)cc2)[C@H]2c3cc(C(=O)N(C)C)n(CCSCCO)c3C[C@H]2CN1C(=O)c1ccccc1 | -0.369%
43 | O=C(CC(=O)c1ccccc1)Nc1ccc(Cl)cc1 | 12.8%
44 | Cc1cc(C)n(CC(=O)n2nc(C)cc2C)n1 | 10.5%

Row | Compound | hERG current change (%, negative = inhibition) at 1uM
45 | CCOC(=O)c1c(NC(=O)c2nn(CC)cc2Br)sc(C)c1C | 15%
46 | CC1CN(C(=O)CN(C)S(=O)(=O)c2ccc3ccccc3c2)CC(C)O1 (stereo not shown) | 7.65%
47 | O=C(Nc1ccc2oc(-c3ccncc3)nc2c1)c1ccc(Br)o1 | 9.84%
48 | CCOC(=O)c1c(-c2ccccc2)csc1N1C(=O)Nc2ccccc2N1O | 11.4%
49 | COC(C)c1oc2c(C)c3oc(=O)cc(C)c3cc2c1C (stereo not shown) | 4.36%
50 | Cc1[nH]n(S(=O)(=O)c2ccccc2)c(=O)c1N=Nc1cccc(Cl)c1 | 13.6%
51 | O=C(Nc1ccccc1Cl)c1ccccc1Cl | -6.03%
52 | Cc1cnc(C(=O)OCC(=O)NC2CCCCCC2)cn1 | 18.8%
53 | COc1ccc(C)cc1NC(=O)C1CCN(S(=O)(=O)c2cccs2)CC1 | 15.6%
54 | CC12CCC(C(=O)O)(C/C1=N\O)C2(C)C (stereo not shown) | -2.26%
55 | Cc1ccccc1-c1nc(CN2CCC(C(=O)NC3CCN(Cc4ccccc4)CC3)CC2)c(C)o1 | 0.832%
56 | Cn1c(OCc2cccnc2)nc2c1c(=O)n(Cc1ccc(Br)cc1)c(=O)n2C | -1.38%
57 | Cc1nnc(NC(=O)C2COc3ccccc3O2)s1 (stereo not shown) | 5.45%
58 | CCOC(=O)CCc1c(C)c2ccc(OCC(=O)N3CCOCC3)c(C)c2oc1=O | -6.26%
59 | Cc1ccc(S(=O)(=O)Nc2ccccc2F)cc1C(=O)OC(C)C(=O)N1CCOCC1 (stereo not shown) | -2.56%
60 | NC(=O)c1sc2nc(N3CCCCC3)c3c(c2c1N)CCCC3 | 4.86%
61 | COc1ccc(CCN2C(=O)c3[nH]nc(-c4ccccc4O)c3C2c2ccc(C)cc2)cc1OC (stereo not shown) | 5.82%
62 | Cl.NCCCCc1cn(CC(=O)N2CCNCC2)nn1 | 13.4%
63 | CC(C)Cc1cc(C(=O)Nc2cc(Br)ccc2O)no1 | 0.505%
64 | COc1ccccc1C(O)(C(=O)NNc1ccccc1C)c1ccccc1OC | 32.6%
65 | CCc1n[nH]c(=S)n1/N=C/c1ccc(-c2ccc(Br)cc2)o1 | 12.5%
66 | O=C1NC(=O)/C(=C\c2ccc(Cl)nc2)S1 | 12.5%

Row | Compound | hERG current change (%, negative = inhibition) at 1uM
67 | O=c1[nH]c(=O)n(CCOc2ccc(Cl)cc2)cc1Br | 13.1%
68 | COc1ccccc1NC(=O)CSc1nncn1-c1cccnc1 | 5.56%
69 | O=C(NC(=S)N1CCCCCC1)c1ccccc1 | 17.6%
70 | COC(=O)c1cc(S(=O)(=O)Nc2cc(OC)cc(OC)c2)c[nH]1 | 17.7%
71 | Cc1nnc(NC(=O)c2cccc(S(=O)(=O)N3CC(c4ccccc4)CC3=O)c2)s1 (stereo not shown) | 2.8%
72 | CCC(=O)N1CCc2cc(S(=O)(=O)CCC(=O)NCc3ccc(C)cc3)ccc21 | 15.1%
73 | COc1ccc(-n2ccnc(SCC(=O)NC3CCCC3)c2=O)cc1 | -4.46%
74 | Cn1cnnc1SCC(C)(C)NS(=O)(=O)c1ccc(Cl)cc1 | 26.4%
75 | CC(=O)N1CCOc2ccc(S(=O)(=O)NCCc3ccc(C)cc3)cc21 | 10.1%
76 | CC(C)(C)n1nnnc1C(c1cccnc1)N1CCN(c2ccccc2F)CC1 (stereo not shown) | 15.7%
77 | Cc1cc2oc(=O)cc(CN3CCCc4ccccc43)c2cc1C | 12.9%
78 | Cc1ccc(-c2nc(CS(=O)(=O)CC(=O)NCc3ccc4c(c3)OCO4)c(C)o2)cc1 | 5.42%
79 | COc1ccc(OC)c(NC(=O)CSc2ncnc3c2cnn3-c2ccccc2Cl)c1 | 8.73%
80 | O=C(OCC(=O)N1CCCc2ccccc21)c1cc(S(=O)(=O)N2CCOCC2)ccc1F | 8.04%
81 | CCN(CC(=O)NCc1ccc(Cl)cc1)C(=O)/C=C/c1ccc(Cl)c([N+](=O)[O-])c1 | -29.6%
82 | COc1ccc(-n2c(SCC(=O)NNC(=O)c3ccc(C)cc3)nnc2-c2ccncc2)cc1 | 1.58%
83 | COc1ccc(CSCCc2n[nH]c(=S)n2-c2ccccc2)cc1C | 13.7%
84 | N#C/C(=C\c1ccccc1)C(=O)Nc1cc(S(=O)(=O)N2CCOCC2)ccc1N1CCCC1 | 4.4%
85 | CC(CCCC(C)(C)O)NCc1cn[nH]c1-c1ccc2c(c1)OCO2 (stereo not shown) | 3.76%
86 | Cc1ccc(C(=O)OCc2nc(N)nc(Nc3ccccc3C)n2)cc1 | 18%
87 | CN(C)N=Nc1ccc(S(=O)(=O)NC(=O)Cc2ccccc2)cc1 | 11.8%
88 | O=C(CN1CCN(Cc2ccc(Cl)cc2)C1=O)NCc1cccs1 | -28.1%

— PMC4336329 (PLoS ONE, 2015)
